Assay results from PMC6919601, “Identification of Plasmodium dipeptidyl aminopeptidase allosteric inhibitors by high throughput screening” (PLoS ONE, 2019).
About 230 (0.21%) of roughly 110,000 compounds showed an effect of 50% or more. The list shows a part of the results.

The compounds below were run against DPAP1 (Plasmodium falciparum, UniProt Q8IIJ9) (assay: primary screen, percent inhibition; read by cleavage of a fluorogenic dipeptide substrate; higher = more effect of the substance).
Set-up: species or system P. falciparum D10 trophozoite lysates; single well
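Further: 30 min substrate incubation versus DMSO and 10 µM JCP410 controls.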

DPAP1, sequence (Q8IIJ9 whole entry, looked up): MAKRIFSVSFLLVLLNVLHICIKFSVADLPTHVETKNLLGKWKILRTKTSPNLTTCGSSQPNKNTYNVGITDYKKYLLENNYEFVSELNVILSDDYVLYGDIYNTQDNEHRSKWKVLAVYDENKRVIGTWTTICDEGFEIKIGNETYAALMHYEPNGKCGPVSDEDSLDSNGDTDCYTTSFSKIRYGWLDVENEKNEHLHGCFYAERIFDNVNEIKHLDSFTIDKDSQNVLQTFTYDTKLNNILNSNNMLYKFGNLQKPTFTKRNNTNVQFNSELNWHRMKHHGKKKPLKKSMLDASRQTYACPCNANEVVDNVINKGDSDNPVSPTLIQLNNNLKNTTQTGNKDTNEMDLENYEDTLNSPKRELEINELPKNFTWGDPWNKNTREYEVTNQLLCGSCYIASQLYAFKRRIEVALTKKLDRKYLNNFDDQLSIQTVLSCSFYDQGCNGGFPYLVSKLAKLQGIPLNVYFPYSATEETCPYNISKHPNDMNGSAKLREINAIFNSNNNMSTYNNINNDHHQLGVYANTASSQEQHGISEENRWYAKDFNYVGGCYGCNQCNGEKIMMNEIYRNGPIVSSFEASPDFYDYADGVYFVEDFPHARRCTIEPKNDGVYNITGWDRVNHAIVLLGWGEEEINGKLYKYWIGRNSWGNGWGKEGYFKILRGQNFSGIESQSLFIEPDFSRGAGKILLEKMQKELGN

Structure (SMILES)	% Inhibition @ 10 uM [%]
Cc1ccc2oc(=O)c3cnn(CC(=O)N4CCc5ccccc5C4)c3c2c1	1.62
COc1ccc(OCC(=O)NCCc2ccccc2)cc1	0.488
Cc1ccc(NS(=O)(=O)c2ccc(F)cc2)cc1C	0.526
CCOc1ccccc1CNC(=O)C(C)n1nc(C)c2c(C)n(-c3ccccc3)nc2c1=O (centres unmarked)	5.46
Cc1c(C(=O)Nc2cccnc2Cl)sc2nc3n(c(=O)c12)CCCC3	-3.8
COc1cc(-c2cc(C(F)(F)F)n3ncc(C(=O)NCC4CCCO4)c3n2)cc(OC)c1OC (centres unmarked)	6.79
CCC(C)NS(=O)(=O)c1ccc(NC(=O)c2cccc(NC(=O)C(C)C)c2)cc1 (centres unmarked)	-0.425
C/C=C/C(=O)NCC1OCCc2ccccc21 (centres unmarked)	-4.74
C=CCNc1nc2c(c(=O)n(C)c(=O)n2C)n1Cc1ccc(F)cc1	6.59
CC1Cc2cc(/C=C3\N=C(c4cccs4)OC3=O)ccc2O1 (centres unmarked)	-5.85
COc1ccc(NS(=O)(=O)c2ccc(NC(=S)NC(=O)/C=C/c3ccccc3)cc2)nn1	1.7
CCN1CCCC1CNC(=O)c1ccc(-c2nc(CS(=O)(=O)c3ccc(C)cc3)c(C)o2)cc1 (centres unmarked)	1.48
CCCC1CCC(c2ccc(C(=O)NC(CCSC)C(=O)O)cc2)CC1 (centres unmarked)	16.5
CCN(CC)S(=O)(=O)c1ccc(N/C=C2/C(=O)NC(=O)N(c3ccccc3)C2=O)cc1	2.44
C=C(C)[C@@H]1CC=C(CN2CCCC(C(N)=O)C2)CC1 (some centres unmarked)	3.48
CCc1ccccc1NC(=O)Nc1cccc(Cl)c1	-1.38
O=C(CSc1ncccc1C(=O)O)c1ccccc1	3.04
CC(=O)Nc1ccc(NC2=CC(=O)c3ccccc3C2=O)cc1	1.54
Cc1c(C#N)c(O)nc(O)c1/C=N/c1ccc(S(=O)(=O)N2CCOCC2)cc1	-5.96
Cc1ccc2c(CNCc3ccc(Cl)cc3)c(C(=O)O)[nH]c2c1	1.8
CCS(=O)(=O)N1CCC2(CC1)OC(=O)C(C)=C2C(=O)N1CCC2(CC1)OCCO2	-0.342
Cc1ccc2occ(CC(=O)N3CCC(Cc4ccccc4)CC3)c2c1	-2.4
CCOc1ccc(-c2[nH]nc3c2C(c2ccncc2)C(C#N)=C(N)O3)cc1OC (centres unmarked)	0.503
Cc1ccc(NC(=O)c2cccc(S(=O)(=O)N3CCCCC3)c2)cc1	7.62
N#CC1=C(N)OC2=C(C(=O)c3ccccc3C2=O)C1c1cccc(C(F)(F)F)c1 (centres unmarked)	-8.01

Structure (SMILES)	% Inhibition @ 10 uM [%]
CCC[C@H](NC(=O)[C@@H](CC(C)C)NC(=O)c1ccc(N2CCN(C)CC2)cc1)C(=O)c1nnc(-c2ccco2)o1	0.173
COc1cccc(Cn2c(C)c(CNCCc3ccccc3Cl)c(C(=O)O)c2C)c1	-3.67
O=C(CCc1nnc2n(CCc3ccccc3)c(=O)c3ccccc3n12)NCC1CCCO1 (centres unmarked)	-2.42
CCOC(=O)c1cc(-c2ccc(F)cc2)n(CCC(=O)N2CCCCC2)c1C	-3.64
O=C(O)c1ccccc1C(=O)Nc1ccc(S(=O)(=O)N2CCCCCC2)cc1	3.8
CC(C)N(C(=O)Nc1ccccc1)C(C)C	3.03
Cc1ccc2ncc(C(=O)c3ccc(C)c(C)c3)c(N3CCC(C(N)=O)CC3)c2c1	0.383
CC1CCCN(Cc2ccccc2[N+](=O)[O-])C1 (centres unmarked)	-1.78
O=C1Cc2ccccc2C(c2ccccc2Cl)N1 (centres unmarked)	-5.2
COCCNC(=O)CCCc1nnc2n(CC(C)C)c(=O)c3sccc3n12	-1.87
CCc1cc(OC)c(OC)cc1C(C)NC(=O)c1ccc(OC)cc1 (centres unmarked)	0.13
COc1ccc(Nc2nc(Cl)nc(NCc3cccnc3)n2)cc1	-1.44
CC(=O)NCCNC(=O)c1ccc(Cn2c(=O)[nH]c3ccsc3c2=O)cc1	-6.5
CC(C)(C)c1ccc(S(=O)(=O)N2CCC(Oc3ccc4c(c3)OCO4)CC2)cc1	2.29
CC(=O)NC(c1ccccc1)c1cccnc1 (centres unmarked)	8.97
COc1ccc(/C=C2/SC(N3CCOCC3)=NC2=O)cc1Br	0.323
COc1cccc2c(O)c(NC(=O)NCCCn3ccnc3)cnc12	-3.08
CCc1ccc(OCC(=O)NC(CC(=O)O)c2ccc(C(C)(C)C)cc2)cc1 (centres unmarked)	-0.703
COc1ccc(N2C(=O)C(Cl)=C(Nc3ccc(F)cc3)C2=O)cc1	-0.318
COc1cc(NCc2cc(F)ccc2F)cc(OC)c1	-6.82
CCOc1ccccc1/C=C(\NC(=O)c1ccccc1)C(=O)N1CCCCCC1	-1.06
CCOC(=O)C1=C(CN2CCN(c3ccccn3)CC2)NC(=O)NC1c1ccc(OC(C)C)cc1 (centres unmarked)	2.39
CCC[C@H](NC(=O)[C@H](C)NC(=O)[C@H](CCC(=O)OC(C)(C)C)NC(=O)[C@@H](NC(=O)OCc1ccccc1)C(C)CC)C(=O)c1nnc(-c2ccccc2)o1 (some centres unmarked)	-1.7
COc1ccc(N2C(=O)c3ccc(C(=O)O)cc3C2=O)cc1NC(=O)c1ccccc1	2.17
CCN(CC)C(=O)C1CCCN(CC2CCCCC2)C1 (centres unmarked)	-8.8

Structure (SMILES)	% Inhibition @ 10 uM [%]
Cc1cc(NC(=O)COc2ccc(Cl)cc2)ccc1Br	5.49
Cc1ccc(S(=O)(=O)NCC2COc3ccccc3O2)cc1 (centres unmarked)	-0.641
CCOC(=O)c1ccccc1NC(=O)CCN1C(=O)c2ccccc2C1=O	-5.38
CN(CCc1ccccn1)Cc1ccoc1	-0.636
CN(C)C(=O)c1ccc2c3c(cccc13)CC2	2.79
C=CC(Oc1ccc(C=O)cc1)c1ccccc1 (centres unmarked)	-4.91
Cc1ccc(C)n1-c1ccc(Cl)cc1	-3.53
c1ccc(/N=c2\scc(-c3ccccc3)n2Cc2cccnc2)cc1	1.57
O=C(NCc1ccc(F)cc1)[C@@H](c1ccccc1)N1Cc2ccccc2C1=O	-4.1
CCCCN(Cc1ccco1)S(=O)(=O)c1csc(C(N)=O)c1	1.9
CN(C)S(=O)(=O)N1C=Cc2ccccc2C1c1c[nH]c2ccccc12 (centres unmarked)	6.5
COc1ccc(CNC(=O)CN2C(=O)c3ccccc3S2(=O)=O)cc1	0.475
Cc1cccn2c(=O)c3cc(C(=O)NCC4CCCO4)n(C)c3nc12 (centres unmarked)	0.522
CC(C)(C)NC(=O)c1oc2ccccc2c1NC(=O)C(C)(C)C	-0.528
COc1ccc(C2NC(S)=NC(C)=C2C(=O)NCc2ccccc2)cc1 (centres unmarked)	-8.57
COc1ccc2c(c1OC)C(=O)N(c1ccc(O)cc1)C2	-1.15
CCOC(=O)c1ccc2ncc(C(=O)OCC)c(O)c2c1	-3.69
CCOc1ccc(C2C3=C(O)CC(C)(C)CC3=NC3=C2C(=O)CC(C)(C)C3)cc1OC (centres unmarked)	1.37
C=CCNc1nc2c(c(=O)[nH]c(=O)n2C)n1Cc1cccc(C)c1	-7.23
O=C(O)C1CC=CCC1C(=O)NCc1cn(-c2ccccc2)nc1-c1ccccc1 (centres unmarked)	2.32
O=S(=O)(c1c[nH]cn1)N1CCN(C(c2ccc(F)cc2)c2ccc(F)cc2)CC1	-2.5
Cc1nc2ccccc2nc1S(=O)(=O)c1ccccc1	-0.99
CC(NC(=O)c1ccccc1NC(=O)CCSc1ccccc1)c1ccccc1 (centres unmarked)	-3.87
Nc1cccc(C(=O)Nc2ccc(N)cc2N)c1	1.02
CCN(CC)CCCNC(=O)CCCn1nc(C)c2c(C)n(-c3ccc(C)cc3)nc2c1=O	-1.39

Structure (SMILES)	% Inhibition @ 10 uM [%]
COc1ccc(C2C3=C(NCCN=C3c3ccccc3)C(=O)N2c2ccccc2)cc1OC (centres unmarked)	-10.4
COc1ccc(-c2nn(C)c(=O)c3ccccc23)cc1CNC(=O)CN1CCOCC1	-3.13
O=C(/C=C/c1ccccc1)N1CCCCCC1	3.1
O=C(O)CCC(=O)Nc1cccc(C(=O)c2ccccc2)c1	-0.553
CCN(CCN(C)C)Cc1ccc(OC(F)(F)F)cc1	-1.75
Cc1ccc(C)c(S(=O)(=O)Nc2ccc3sc(C)nc3c2)c1	-6.74
COc1cc(C2C(=O)N(C3CCC(C)CC3)CC(=O)N2CCc2ccccc2)ccc1OC(C)C (centres unmarked)	-2.26
COc1ccc2ccccc2c1C1CC(=O)N2CN(Cc3ccco3)CSC2=C1C#N (centres unmarked)	31.2
COc1ccc(C(=O)Nc2sc(Cc3ccccc3)cc2C(N)=O)cc1	-0.116
CCN(CC)CCNC(=O)c1cc(-c2cccnc2)nc2ccccc12	-2.26
CC(C)CCNC(=O)c1csc2c1CCCC2	6.59
CN1CCN(C(=O)Cn2ncc3c4ccccc4n(Cc4ccccc4F)c3c2=O)CC1	3.4
Cc1ccc2c(c1)cc1c(=O)n(CC(=O)NCCc3c[nH]c4ccccc34)nc(C)n12	3.09
CCSc1nnc(NC(=O)CSc2nc3c(cc2C#N)CCCC3)s1	-2.14
CCOC(=O)c1nnn(-c2cc(Cl)ccc2OC)c1C(=O)OCC	-7.46
Cn1nc(Oc2nc(N3CCCCC3)nc(N3CCCCC3)n2)ccc1=O	0.628
Cc1cc2c3c(c1)C(C)CC(C)(C)N3C(=O)C2=O (centres unmarked)	0.674
OC1=C2C(=Nc3nc4ccccc4n3C2c2cccnc2)CC(c2ccc(Cl)cc2)C1 (centres unmarked)	6.64
COc1ccc(C(=O)Nc2ccc(C(=O)c3ccccc3)cc2)cc1	-1.28
Cc1sc2nc(-c3cccs3)nc(O)c2c1C	0.392
OC(CNCC1COc2ccccc2O1)COc1ccccc1 (centres unmarked)	1.15
COc1nc2c(C)cccc2cc1-c1noc(-c2ccc(C)cc2)n1	1
O=C(NCCc1ccccc1)C1COc2ccccc2O1 (centres unmarked)	-6.3
